# Some of the results follow.
# B1: rCnSL-A (Clitocybe nebularis) (protein)
# chain: VNPNLPGPNDVFVGFRGTNNIVGAIYEKDGIKDTPLNNGADAEMGPGSYITDGLFTARIFASGSAGNNPGTTATVCKIYASGVQWRGAPKGYIPVAYFGNGPTAEQRRQTYLRTLGLPGTAIRFGNLNTNPGQGPTAPRQMVVPPGPLRSLLKASCFPAADTRLPQTLHYFEKRVDWNIITAADSQTWGH
# Columns and labels:
# Assay in all cases: glycan array binding signal (z-score within array); higher = stronger binding
# Details in all cases: glycan notation: IUPAC condensed, linker removed
# [1] = molecular target: Neu5Ac(a2-6)GlcNAc(b1-4)GlcNAc(b1-4)GlcNAc
# Summary of the method: (§1)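 Glycan array binding is given as a within-array Z-score, which can be read as non-binding when negative. The arrays, 3228 of them, came from the Consortium for Functional Glycomics database and were retained only where the protein sequence was available. Z-scores were averaged across arrays of the same protein sequence at different concentrations or buffers and across linkers.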
# Neu5Ac(a2-8)Neu5Ac = molecular target: Neu5Ac(a2-8)Neu5Ac
# Summary of the method: as §1
# [2] = molecular target: Neu5Ac(a2-8)Neu5Ac(a2-3)Gal(b1-3)GalNAc(b1-4)[Neu5Ac(a2-3)]Gal(b1-4)Glc
# Summary of the method: as §1
# [3] = molecular target: Neu5Ac(a2-8)Neu5Ac(a2-3)Gal(b1-3)GalNAc(b1-4)[Neu5Ac(a2-8)Neu5Ac(a2-3)]Gal(b1-4)Glc
# Summary of the method: as §1
# [4] = molecular target: Neu5Ac(a2-8)Neu5Ac(a2-3)Gal(b1-4)Glc
# Summary of the method: as §1
# [5] = molecular target: Neu5Ac(a2-8)Neu5Ac(a2-3)Gal(b1-4)GlcNAc
# Summary of the method: as §1
# [6] = molecular target: Neu5Ac(a2-8)Neu5Ac(a2-3)[Gal(b1-3)GalNAc(b1-4)]Gal(b1-4)Glc
# Summary of the method: as §1
# [7] = molecular target: Neu5Ac(a2-8)Neu5Ac(a2-3)[GalNAc(b1-4)]Gal(b1-4)Glc
# Summary of the method: as §1
# [8] = molecular target: Neu5Ac(a2-8)Neu5Ac(a2-8)Neu5Ac
# Summary of the method: as §1
# [9] = molecular target: Neu5Ac(a2-8)Neu5Ac(a2-8)Neu5Ac(a2-3)Gal(b1-4)Glc
# Summary of the method: as §1
# [10] = molecular target: Neu5Ac(a2-8)Neu5Ac(a2-8)Neu5Ac(a2-3)[Gal(b1-3)GalNAc(b1-4)]Gal(b1-4)Glc
# Summary of the method: as §1
# [11] = molecular target: Neu5Ac(a2-8)Neu5Ac(a2-8)Neu5Ac(a2-3)[GalNAc(b1-4)]Gal(b1-4)Glc
# Summary of the method: as §1
# [12] = molecular target: Neu5Ac(a2-8)Neu5Ac(a2-8)Neu5Ac(a2-8)Neu5Ac(a2-3)[GalNAc(b1-4)]Gal(b1-4)Glc
# Summary of the method: as §1
# [13] = molecular target: Neu5Ac(a2-8)Neu5Gc(a2-3)Gal(b1-4)GlcNAc
# Summary of the method: as §1
# [14] = molecular target: Neu5Ac(b2-6)Gal(b1-4)GlcNAc
# Summary of the method: as §1
# Neu5Ac(b2-6)GalNAc = molecular target: Neu5Ac(b2-6)GalNAc
# Summary of the method: as §1
# [15] = molecular target: Neu5Ac9Ac(a2-3)Gal(b1-3)GlcNAc
# Summary of the method: as §1
# [16] = molecular target: Neu5Ac9Ac(a2-3)Gal(b1-4)GlcNAc
# Summary of the method: as §1
# [17] = molecular target: Neu5Ac9Ac(a2-6)Gal(b1-4)GlcNAc
# Summary of the method: as §1
# [18] = molecular target: Neu5Gc(a2-3)Gal(b1-3)GlcNAc
# Summary of the method: as §1
# [19] = molecular target: Neu5Gc(a2-3)Gal(b1-3)[Fuc(a1-4)]GlcNAc
# Summary of the method: as §1
# Neu5Gc(a2-3)Gal(b1-4)Glc = molecular target: Neu5Gc(a2-3)Gal(b1-4)Glc
# Summary of the method: as §1
# [20] = molecular target: Neu5Gc(a2-3)Gal(b1-4)GlcNAc
# Summary of the method: as §1
# [21] = molecular target: Neu5Gc(a2-3)Gal(b1-4)GlcNAc(b1-3)Gal(b1-4)GlcNAc(b1-2)Man(a1-3)[Neu5Gc(a2-3)Gal(b1-4)GlcNAc(b1-3)Gal(b1-4)GlcNAc(b1-2)Man(a1-6)]Man(b1-4)GlcNAc(b1-4)GlcNAc
# Summary of the method: as §1
# [22] = molecular target: Neu5Gc(a2-3)Gal(b1-4)[Fuc(a1-3)]GlcNAc
# Summary of the method: as §1
# [23] = molecular target: Neu5Gc(a2-6)Gal(b1-4)GlcNAc
# Summary of the method: as §1
# Neu5Gc(a2-6)GalNAc = molecular target: Neu5Gc(a2-6)GalNAc
# Summary of the method: as §1
# [24] = molecular target: Neu5Gc(a2-8)Neu5Ac(a2-3)Gal(b1-4)GlcNAc
# Summary of the method: as §1
# [25] = molecular target: Neu5Gc(a2-8)Neu5Gc(a2-3)Gal(b1-4)GlcNAc
# Summary of the method: as §1
# [26] = molecular target: Neu5Gc(a2-8)Neu5Gc(a2-3)Gal(b1-4)GlcNAc(b1-3)Gal(b1-4)GlcNAc
# Summary of the method: as §1
# [27] = molecular target: Neu5Gc(a2-8)Neu5Gc(a2-6)Gal(b1-4)GlcNAc
# Summary of the method: as §1
# [28] = molecular target: Neu5Gc(b2-6)Gal(b1-4)GlcNAc
# Summary of the method: as §1
binder,measurement,setting,value
B1,glycan array binding signal (z-score),[1],-0.339
same,glycan array binding signal (z-score),Neu5Ac(a2-8)Neu5Ac,-0.23
same,glycan array binding signal (z-score),[2],-0.299
same,glycan array binding signal (z-score),[3],-0.192
same,glycan array binding signal (z-score),[4],-0.223
same,glycan array binding signal (z-score),[5],-0.345
same,glycan array binding signal (z-score),[6],-0.234
same,glycan array binding signal (z-score),[7],-0.246
same,glycan array binding signal (z-score),[8],-0.276
same,glycan array binding signal (z-score),[9],-0.228
same,glycan array binding signal (z-score),[10],0.094
same,glycan array binding signal (z-score),[11],-0.215
same,glycan array binding signal (z-score),[12],-0.231
same,glycan array binding signal (z-score),[13],-0.288
same,glycan array binding signal (z-score),[14],-0.228
same,glycan array binding signal (z-score),Neu5Ac(b2-6)GalNAc,-0.222
same,glycan array binding signal (z-score),[15],-0.199
same,glycan array binding signal (z-score),[16],0.394
same,glycan array binding signal (z-score),[17],-0.255
same,glycan array binding signal (z-score),[18],-0.273
same,glycan array binding signal (z-score),[19],-0.215
same,glycan array binding signal (z-score),Neu5Gc(a2-3)Gal(b1-4)Glc,-0.52
same,glycan array binding signal (z-score),[20],-0.235
same,glycan array binding signal (z-score),[21],-0.099
same,glycan array binding signal (z-score),[22],-0.271
same,glycan array binding signal (z-score),[23],-0.271
same,glycan array binding signal (z-score),Neu5Gc(a2-6)GalNAc,-0.262
same,glycan array binding signal (z-score),[24],-0.225
same,glycan array binding signal (z-score),[25],-0.254
same,glycan array binding signal (z-score),[26],-0.31
same,glycan array binding signal (z-score),[27],-0.26
same,glycan array binding signal (z-score),[28],-0.297

# — the supplement of paper PMC8728848
